# Over roughly 33,000 sequences, “E-score (-0.5 to 0.5)” has its median near -0.054; the highest 2% begin near 0.35. The list shows a part of the results.
# Target: T1, Stb5 (UniProt P38699)
# T1 sequence: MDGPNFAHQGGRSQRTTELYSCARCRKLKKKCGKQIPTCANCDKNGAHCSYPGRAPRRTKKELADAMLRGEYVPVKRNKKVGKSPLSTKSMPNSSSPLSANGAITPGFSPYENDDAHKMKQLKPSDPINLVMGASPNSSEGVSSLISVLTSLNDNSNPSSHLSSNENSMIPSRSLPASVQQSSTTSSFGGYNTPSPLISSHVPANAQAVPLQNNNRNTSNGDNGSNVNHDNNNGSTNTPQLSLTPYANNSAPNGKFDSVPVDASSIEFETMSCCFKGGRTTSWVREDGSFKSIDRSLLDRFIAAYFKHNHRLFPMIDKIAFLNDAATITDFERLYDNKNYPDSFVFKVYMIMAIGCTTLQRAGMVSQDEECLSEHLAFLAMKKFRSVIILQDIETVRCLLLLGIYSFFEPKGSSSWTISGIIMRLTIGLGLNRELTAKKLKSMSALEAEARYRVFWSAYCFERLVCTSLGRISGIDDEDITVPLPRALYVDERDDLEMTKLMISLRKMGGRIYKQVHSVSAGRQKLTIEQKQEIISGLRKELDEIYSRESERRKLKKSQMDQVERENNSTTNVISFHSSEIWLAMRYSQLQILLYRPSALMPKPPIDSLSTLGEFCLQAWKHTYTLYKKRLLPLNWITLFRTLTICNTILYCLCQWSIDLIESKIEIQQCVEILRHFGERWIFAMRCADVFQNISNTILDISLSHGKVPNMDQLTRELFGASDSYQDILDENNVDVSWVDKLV
# Assay: PBM E-score (8-mer binding enrichment) (E-score (-0.5 to 0.5)); higher = stronger / more preferred TF binding; most listed sequences are background and not binding sites
# Conditions: protein concentration: 200 nM; construct: GST-full length
# How it was run: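 Each ungapped eight-base word and its reverse complement, pooled, received an E-score from the Universal PBM Analysis Suite. Underlying scans, normalised with masliner, recorded fluorescent anti-GST bound to GST-tagged yeast transcription factors. These were applied at about 100-200 nM to universal all-10-mer Agilent arrays double-stranded by primer extension.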
row,Sequence,PBM E-score
1,AAGTCTTA,-0.12
2,GCTAACAA,0.00364
3,GGCGTGCA,-0.292
4,TACACACA,-0.226
5,CTAACAAA,-0.0818
6,GTGCATGA,-0.08
7,CTCATCGC,-0.0444
8,CGTCGATC,0.0531
9,ACCATAGA,-0.0312
10,AACCAGTA,-0.137
11,AGATTGAT,-0.0793
12,GCATAGTA,0.0728
13,AAGACGTG,-0.145
14,CATGTTGA,-0.0181
15,GCCGTCTA,0.147
16,ATCTGTCG,0.138
17,CCATGCTA,-0.28
18,TCTTCAAA,-0.239
19,ATCCCTTA,-0.132
20,GCCTACCA,-0.0157
21,ATAATGAG,-0.113
22,CACACCTG,-0.19
23,AGGCACGG,0.138
24,CTCAGTTC,-0.39
25,GACAGGAC,0.018

row,Sequence,PBM E-score
1,ACTCATCG,0.115
2,GGCCAGGA,-0.264
3,CGTGTCCC,-0.0774
4,GCTAACGA,0.00948
5,CATAAATG,-0.202
6,AACTTACA,-0.111
7,CATCTTTC,-0.238
8,ACACCCAT,-0.0903
9,GCGCTACA,0.0449
10,AATGGCGT,-0.0532
11,AAATTCCC,0.245
12,AAATGTCC,0.343
13,GGGGGATA,0.13
14,AAGGCACG,-0.0337
15,AAGTAAGA,-0.141
16,GGTCCATA,0.0543
17,ATCCTGGA,-0.135
18,ATGATTTC,-0.137
19,GTGAAACA,-0.033
20,CCCCCAGG,-0.281
21,CGTAAAAC,0.157
22,GTAGCCTA,-0.3
23,CGACATTA,0.237
24,GCATTGAA,-0.0445
25,GTAGCGAC,0.108

row,Sequence,PBM E-score
1,GGCCTAGA,-0.147
2,AGGTAGTC,-0.2
3,AGCCAGAC,-0.197
4,ACTCTGAC,0.0403
5,ACCCTCAC,-0.325
6,AAACCAGG,-0.00613
7,GATTTCCA,-0.122
8,ATAGCTGA,-0.075
9,AAGCTAGA,-0.389
10,CGCACCTC,-0.0539
11,GGAAGATA,0.0506
12,CAGTTGCA,-0.245
13,CATGTTAC,-0.0955
14,GTAGCAAA,-0.0214
15,CAGCCCCG,0.267
16,CCATAGCC,-0.0152
17,CCGGCCGA,0.272
18,TAGCGTCA,0.0505
19,ATCGGCAT,0.363
20,CACTCTTC,-0.1
21,GTTAATGA,-0.209
22,CACGCAGG,-0.132
23,AAGACATC,-0.0816
24,CGACAGCC,-0.0167
25,ATATAGAT,-0.122

row,Sequence,PBM E-score
1,GTCGTGTA,-0.0816
2,AACCCACG,-0.0903
3,CACCCCAG,-0.171
4,CCGTCAAC,0.144
5,AATCCACA,-0.0189
6,AGGTTGGG,-0.208
7,TCACCCCA,-0.0925
8,AGTATGAC,-0.0163
9,AATATCCA,-0.00669
10,GAGTGGAC,-0.0648
11,GCGATGAC,-0.0995
12,CCGTGATA,0.21
13,AAAATGTG,-0.067
14,AAGCTCGG,0.134
15,AGAGATTG,-0.0979
16,AGAGCTGA,-0.259
17,ATTGTTCC,0.146
18,AGGCGGAG,0.356
19,GCGCAGCC,-0.0753
20,AGTCGGCA,0.325
21,GACTTGAC,0.013
22,AATGAAGC,-0.0784
23,CCCTGTCC,-0.0839
24,CCGTCTTA,0.197
25,AATCGCTG,0.0298

row,Sequence,PBM E-score
1,CGAATGTA,0.0849
2,AATCCCCC,0.127
3,GCGGCAAA,0.254
4,ATGTAATC,-0.0748
5,CGCCATTA,0.208
6,CTGCAAAC,-0.23
7,CAGCAAGA,0.00075
8,CTCCTAAA,-0.143
9,CAATATTA,0.139
10,TAGGAAAA,-0.0933
11,ACCGCTTA,0.197
12,GGACGCCA,-0.0391
13,CATAGGGG,-0.164
14,GCCGACCA,0.293
15,AGACTACT,-0.313
16,ACAAATGA,-0.347
17,ATCCTAAC,-0.0295
18,CGAGCCGC,0.128
19,AGGTAAGG,-0.224
20,TGAGCTAA,-0.223
21,AGAGACAA,-0.246
22,GATAGGCA,-0.305
23,CAAACTCC,0.253
24,GGAGCTAA,0.334
25,AACATGGT,-0.217

row,Sequence,PBM E-score
1,ATGGTCAG,-0.183
2,TATGAAAA,0.0172
3,GAACTGGA,-0.0425
4,CGCGTGAA,-0.0581
5,AGGATTAA,0.0794
6,AACAAGCG,0.191
7,TACCGAAA,0.187
8,CCTTACAC,0.0417
9,TACACAGA,-0.0662
10,AAGAAGCT,-0.206
11,ATGCTTAG,-0.213
12,GCGTTGCC,-0.0138
13,CTTAGCGA,-0.135
14,AGCGCCTG,0.121
15,GACCATTA,-0.0262
16,ACTTACAC,-0.00546
17,CAATGTCG,-0.0242
18,AATGAGTC,-0.0615
19,GTCACTGA,-0.09
20,CATCTTCG,0.0343
21,ACATGCCT,-0.191
22,TATTGTCA,-0.137
23,ATTCTGAG,-0.0348
24,ATTTCACA,-0.157
25,ACCGCCGA,0.405

row,Sequence,PBM E-score
1,CTTACAAA,0.0141
2,CGCGATCC,0.0632
3,GACAATGC,-0.0381
4,GAGATCCA,-0.176
5,TAGTTATA,0.112
6,GTCAATTA,0.0558
7,ACGGTGCG,0.281
8,ACACGAAA,0.115
9,AGAGATTC,-0.0575
10,GGCAACAA,-0.109
11,AGATCTGG,-0.154
12,AATTCCGA,0.265
13,GGTGAGTA,-0.0384
14,AGCAGCGC,0.106
15,CAAAACCC,0.2
16,AGTAGCAA,-0.109
17,CCAGCGTC,0.0515
18,CACTCATC,-0.0493
19,CGCGCCAC,-0.00899
20,AGACCCAA,-0.25
21,GTGGAAAA,-0.114
22,GTGCGAAA,-0.0753
